Substrate: C[C@]12CCC(=O)C=C1CC[C@@H]1[C@@H]2[C@@H](O)C[C@@]2(C)[C@H]1CC[C@]2(O)C(=O)CO
Test: cells, lysate or membranes named
Details: other: CYP3A4 supersomes, pH 7.4

B1: CYP3A4 (Homo sapiens) (protein)
chain: MALIPDLAMETWLLLAVSLVLLYLYGTHSHGLFKKLGIPGPTPLPFLGNILSYHKGFCMFDMECHKKYGKVWGFYDGQQPVLAITDPDMIKTVLVKECYSVFTNRRPFGPVGFMKSAISIAEDEEWKRLRSLLSPTFTSGKLKEMVPIIAQYGDVLVRNLRREAETGKPVTLKDVFGAYSMDVITSTSFGVNIDSLNNPQDPFVENTKKLLRFDFLDPFFLSITVFPFLIPILEVLNICVFPREVTNFLRKSVKRMKESRLEDTQKHRVDFLQLMIDSQNSKETESHKALSDLELVAQSIIFIFAGYETTSSVLSFIMYELATHPDVQQKLQEEIDAVLPNKAPPTYDTVLQMEYLDMVVNETLRLFPIAMRLERVCKKDVEINGMFIPKGVVVMIPSYALHRDPKYWTEPEKFLPERFSKKNKDNIDPYIYTPFGSGPRNCIGMRFALMNMKLALIRVLQNFSFKPCKETQIPLKLSLGGLLQPEKPVVLKVESRDGTVSGA
Km: 148 ± 25 µM
kcat: 27±2 pmol/min/pmol CYP3A4
